The supplement of paper PMC10126150
Values marked as one replicate rest on one cluster of the flow cell; about a third of the high ones do not repeat.

These sequences were tested on ATP (assay: switch fluorescence ratio, 500 uM ATP over buffer (Cy3 cluster intensity, sum of 5 cycles each) (fold (ratio)); higher = stronger signal-on switching upon ATP binding; sequences stand for … in TCGTCGGCAGCGTCAGATGTGTATAAGAGACAGTTTTTTTTTTTTTTTTTTTTTTTTT…TC). Settings: aptamer strand: ATP DNA aptamer (quencher-CACCTGGGGGAGTATTGCGGAGGAAGG + anchor), 100 nM annealed; ATP concentration: 500 uM; one replicate.
Method in brief: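 Clusters with intensities outside 100-1000 RFU were excluded. The remaining Cy3-labelled switching-strand clusters on a modified Illumina MiSeq flow-cell had been annealed to 100 nM quencher-labelled ATP aptamer and imaged in selection buffer, then after 15 min with 500 uM ATP at 22 °C, for five cycles separated by NaOH stripping and re-annealing. The fluorescence ratio, averaged per switch-domain sequence, is each cluster's summed target-cycle Cy3 intensity over its summed buffer-cycle Cy3 intensity.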
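Also: ATP exposure 15 min at 22 °C before imaging.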

Sequence | switch fluorescence ratio
CCCCGATACC | 2.14
CCCCGTATTT | 1.29
CCCCGTCAGG | 1.05
CCCCGTCTTT | 1.08
CCCCTAATCG | 1.02
CCCCTCTGTG | 2.37
CCCCTGACCC | 1.14
CCCCTGGGCG | 1.57
CCCCTTCCAT | 0.955
CCCGCGCGC | 1.21
CCCGCTATGG | 2.69
CCCGCTCTGG | 1.17
CCCGCTGGTA | 1.14
CCCGGAAAAG | 0.975
CCCGGAACTT | 1.01
CCCGGGCGCA | 1.13
CCCGGTCATA | 1.03
CCCGGTTTAC | 1.65
CCCGTAATTG | 1.65
CCCGTCAAGT | 1.35
CCCGTCAGCT | 1.05
CCCGTCGGTA | 1.01
CCCGTGAGGA | 1.02
CCCGTGCTGA | 1.04
CCCGTGGGGG | 1.08

Sequence | switch fluorescence ratio
CCCGTTCCCG | 1.06
CCCGTTTTGG | 0.961
CCCGTTTTTA | 1.01
CCCTAAGGGC | 1.04
CCCTATACGT | 1.31
CCCTATGCT | 1.16
CCCTATGCTG | 1.16
CCCTCAGGTC | 2.34
CCCTCGTATC | 1.35
CCCTCTATTG | 1.06
CCCTCTTAGC | 1.15
CCCTGACAAC | 1.28
CCCTGGTGGC | 1.88
CCCTGTATTT | 1.05
CCCTGTCTGT | 1.04
CCCTTACATA | 1.07
CCCTTACTGC | 1.23
CCCTTAGTTG | 1.04
CCCTTCCCTC | 1.8
CCCTTGCTGG | 0.974
CCCTTGTGCT | 1.01
CCCTTTATGT | 1.02
CCGAAACGGA | 1.06
CCGAAAGAAT | 4.16
CCGAACTAGA | 1.38

Sequence | switch fluorescence ratio
CCGAACTGGA | 1.04
CCGAAGGTAT | 1.1
CCGAATCCGG | 1.06
CCGAATGGCT | 1.09
CCGACCATCA | 1.99
CCGACGGGT | 2.3
CCGACGGGTT | 2.97
CCGACTCTGA | 1.66
CCGACTGGCT | 1.59
CCGACTGTGG | 0.999
CCGAGACGGA | 1
CCGAGAGTTC | 1.25
CCGAGATAAG | 1.14
CCGAGCCGGT | 1.04
CCGAGCCTAA | 3.48
CCGAGTTGTA | 1.12
CCGAGTTTAA | 1.39
CCGATGCGAG | 4.64
CCGATGTTCT | 1.21
CCGATTATCA | 1
CCGCATAAAA | 3.8
CCGCATGTAG | 3.72
CCGCCATTTG | 1.81
CCGCGACTCT | 3.23
CCGCGCAGTG | 1.85

Sequence | switch fluorescence ratio
CCGCGGGACT | 5.93
CCGCGGGTGG | 1.05
CCGCTCGCCT | 3.86
CCGCTCTTCG | 1.13
CCGCTGAGGG | 1.41
CCGCTGATGG | 3.27
CCGCTGTGTT | 1.41
CCGCTTTTAG | 3.3
CCGGAAAAGG | 0.967
CCGGAAGGGA | 1.76
CCGGAATTTT | 1.11
CCGGACATGC | 3.06
CCGGAGGTAG | 1.19
CCGGATTAGG | 0.995
CCGGATTAGT | 1.18
CCGGATTGGC | 1.12
CCGGCCCTTT | 1.07
CCGGCCGATG | 1.05
CCGGCCGTA | 1.08
CCGGCCTTTT | 0.946
CCGGCGAATC | 3.44
CCGGCGATAG | 4.25
CCGGCGATTA | 1.56
CCGGCGCGCG | 1.01
CCGGCGGCGA | 1.88

Sequence | switch fluorescence ratio
CCGGCGGTAG | 1.14
CCGGGAATGT | 1.06
CCGGGACGTC | 0.988
CCGGGAGATC | 1.05
CCGGGAGTC | 1.34
CCGGGATGAT | 5.31
CCGGGCCTTT | 0.991
CCGGGCGGCA | 1.06
CCGGGGTATA | 1.11
CCGGGTGGAG | 1.08
CCGGGTTATG | 1.01
CCGGTAGGTT | 1.03
CCGGTGCGAC | 4.96
CCGGTTCGAA | 1
CCGGTTTAGG | 0.973
CCGGTTTATT | 0.982
CCGGTTTGTT | 1.07
CCGTAAGTCC | 2.16
CCGTACAATT | 2.41
CCGTACCGAA | 1.71
CCGTACTTCC | 2.11
CCGTAGAAAC | 3.85
CCGTAGGGCC | 1.08
CCGTATTGTC | 1.2
CCGTCCATTT | 1.08

Sequence | switch fluorescence ratio
CCGTCTCGCC | 3.09
CCGTCTGCGG | 1.02
CCGTGATCTC | 5.59
CCGTGCCCAG | 1.91
CCGTGCCGGG | 0.996
CCGTGGATCT | 1.01
CCGTTGCAGT | 2.13
CCGTTGCTGG | 1.03
CCGTTTACGT | 1.03
CCGTTTAGTT | 1.06
CCGTTTTTAA | 1.05
CCTAAATATT | 1.04
CCTAACCAGG | 2.61
CCTAAGAACC | 1.03
CCTAAGCCCG | 0.988
CCTAAGCCGT | 1.02
CCTAATAGAG | 0.969
CCTACCATCT | 1.24
CCTACCTTCA | 2.14
CCTACGGACC | 2.45
CCTACGGCTG | 1.8
CCTACGTCGT | 2.38
CCTAGATAGC | 1.09
CCTAGATCCG | 1.23
CCTAGCAGGG | 1.14

Sequence | switch fluorescence ratio
CCTAGCCATC | 2.83
CCTAGCGCCA | 3.07
CCTAGGTATC | 1.01
CCTATAAGGA | 0.997
CCTATATCTG | 0.978
CCTATCATTT | 0.993
CCTATTCTAC | 1.16
CCTATTGGCA | 1.07
CCTATTTGAT | 1.02
CCTCAACCAG | 1.88
CCTCAATGTA | 1.81
CCTCAGCTAA | 3.4
CCTCATTGA | 1.07
CCTCCATGAA | 3.74
CCTCCCCGG | 3.62
CCTCCGCGGG | 2.38
CCTCCGGCAT | 2.43
CCTCCGGGAG | 4.95
CCTCCGGTTG | 5.37
CCTCGAACA | 1.4
CCTCGCGGAG | 2.21
CCTCGGATCC | 1.39
CCTCTCAGAG | 1.23
CCTCTCCGGA | 1.17
CCTCTCGATC | 5.53

Sequence | switch fluorescence ratio
CCTCTGAGGG | 1.11
CCTCTTTTTA | 1.1
CCTGAAGTGC | 1.38
CCTGAATCCT | 1.03
CCTGAATTTT | 0.984
CCTGAGATAT | 1.09
CCTGAGTTTA | 1.06
CCTGATTTAT | 1.02
CCTGCAAGGA | 1.03
CCTGCCAACG | 2.19
CCTGCCTTTG | 1.15
CCTGCTCCCA | 1.32
CCTGCTGCCA | 1.72
CCTGCTTCAA | 1.54
CCTGGAGCTT | 2.2
CCTGGCGGCG | 0.983
CCTGGCTCGG | 1.02
CCTGGGAATC | 1.49
CCTGGGTAGT | 1
CCTGGTAATG | 1.09
CCTGGTATCA | 0.97
CCTGGTTAAT | 0.993
CCTGTATCTA | 1.01
CCTGTCTTGC | 1.03
CCTGTTGGAG | 0.997
